The supplement of paper PMC8285479
Structures can show the parent of a compound that is named as a salt. ± gives the standard deviation of the averaged measurements. Whole data set: some 1,900 compounds, median “normalised cell viability (NPI; 0 = phenylarsine oxide control, 1 = DMSO control)” near 1, cut for the lowest 2% near 0.039. The list shows a part of the results.

System: NCI-H1944
Assay: normalised cell viability (NPI; 0 = phenylarsine oxide control, 1 = DMSO control) (fraction of DMSO control); NCI-H1944 is a non-small cell lung cancer line; higher = more viable cells (less compound toxicity)
Conditions: 6 days
[1] = glucocorticoid arm: hydrocortisone 2.75 uM co-treatment, compound 1 µM
[2] = glucocorticoid arm: hydrocortisone 2.75 uM co-treatment, compound 5 µM
[3] = glucocorticoid arm: hydrocortisone 2.75 uM pre-treated 2 days and continued, compound 1 µM
[4] = glucocorticoid arm: hydrocortisone 2.75 uM pre-treated 2 days and continued, compound 5 µM
[5] = glucocorticoid arm: vehicle, compound 1 µM
[6] = glucocorticoid arm: vehicle, compound 5 µM
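Note: CTB read-out in 384-well plates, mean of triplicate wells, normalised per plate against 1 µM phenylarsine oxide and 0.1% DMSO, compounds added 24 h after seeding.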

Row | SMILES | normalised cell viability [1] | normalised cell viability [2] | normalised cell viability [3] | normalised cell viability [4] | normalised cell viability [5] | normalised cell viability [6]
1 | NCC(O)C1CCCCCCC1 (stereo not drawn) [2-Cyclooctyl-2-hydroxyethylamine hydrochloride] | 0.987 ± 0.012 | 0.971 ± 0.016 | 0.998 ± 0.013 | 0.972 ± 0.02 | 0.9697 ± 0.0015 | 0.9663 ± 0.0085
2 | CN1CCN(CC/C=C2/c3ccccc3Sc3ccc(S(=O)(=O)N(C)C)cc32)CC1 [Thiothixene hydrochloride] | 0.981 ± 0.0066 | 0.929 ± 0.033 | 1.01 ± 0.018 | 1 ± 0.014 | 0.9763 ± 0.0042 | 0.984 ± 0.0085
3 | CC(C)(C=O)Cc1cc(C(C)(C)C)c(O)c(C(C)(C)C)c1 | 1.01 ± 0.01 | 1.017 ± 0.0058 | 1.013 ± 0.0058 | 1.005 ± 0.0071 | 0.988 ± 0.0076 | 1.005 ± 0.0087
4 | O=C(/C=C/C#Cc1cccc(NS(=O)(=O)c2ccccc2)c1)NO [Oxamflatin] | 0.974 ± 0.015 | 0.599 ± 0.44 | 0.992 ± 0.019 | 0.901 ± 0.11 | 0.843 ± 0.17 | 0.509 ± 0.54
5 | Cc1cn[nH]c1 [4-Methylpyrazole hydrochloride] | 0.9937 ± 0.0021 | 0.999 ± 0.021 | 0.994 ± 0.0066 | 1.02 ± 0.099 | 0.983 ± 0.012 | 0.9903 ± 0.0085
6 | OCCN1CCN(CC/C=C2/c3ccccc3Sc3ccc(C(F)(F)F)cc32)CC1 [cis-(Z)-Flupenthixol dihydrochloride] | 0.978 ± 0.024 | 0.876 ± 0.036 | 0.992 ± 0.019 | 1.01 ± 0.021 | 1.017 ± 0.0058 | 1.004 ± 0.01
7 | C[C@@H](NCCCc1cccc(C(F)(F)F)c1)c1cccc2ccccc12 [Cinacalcet HCl] | 0.997 ± 0.022 | 0.9773 ± 0.0091 | 0.979 ± 0.016 | 0.984 ± 0.026 | 0.983 ± 0.011 | 0.9897 ± 0.0085
8 | CC[N+](C)(C)c1cccc(O)c1 [Edrophonium chloride] | 0.9987 ± 0.0023 | 0.988 ± 0.013 | 0.998 ± 0.013 | 1 ± 0.036 | 0.9933 ± 0.0042 | 0.997 ± 0.0052
9 | NCCc1c[nH]cn1 [Histamine dihydrochloride] | 0.9973 ± 0.0046 | 0.999 ± 0.021 | 0.987 ± 0.019 | 0.9843 ± 0.0065 | 0.9997 ± 0.0093 | 0.9953 ± 0.0055
10 | NCCc1c[nH]cn1 [Histamine 2HCl] | 1.01 | 0.988 ± 0.012 | 1 ± 0.011 | 0.988 ± 0.012 | 1.01 ± 0.011 | 1.01
11 | CN(C)CCC(c1ccc(Cl)cc1)c1ccccn1 (racemic) [(±)-Chlorpheniramine maleate] | 0.9833 ± 0.0025 | 0.985 ± 0.018 | 0.9843 ± 0.0078 | 0.991 ± 0.028 | 0.9727 ± 0.0021 | 0.987 ± 0.0069
12 | CC(C)(C)c1cnc(CSc2cnc(NC(=O)C3CCNCC3)s2)o1 | 0.0382 ± 0.0034 | 0.036 ± 0.0061 | 0.148 ± 0.013 | 0.133 ± 0.018 | 0.00695 ± 0.0037 | 0.00933 ± 0.00035
13 | O=C(O)CCCCCCCC(=O)O [Azelaic acid] | 0.9967 ± 0.0035 | 1.01 ± 0.011 | 0.993 ± 0.0089 | 1.015 ± 0.0071 | 0.986 ± 0.012 | 0.995 ± 0.013
14 | CC(=Cc1ccc(C(=O)O)cc1)c1ccc2c(c1)C(C)(C)CCC2(C)C | 0.949 ± 0.009 | 0.898 ± 0.013 | 0.976 ± 0.047 | 0.9253 ± 0.0023 | 1.003 ± 0.0058 | 0.981 ± 0.014
15 | COC(=O)Nc1nc2cc(C(=O)c3cccs3)ccc2[nH]1 [Nocodazole] | 0.303 ± 0.043 | 0.241 ± 0.033 | 0.9187 ± 0.0025 | 0.972 ± 0.077 | 0.0737 ± 0.0078 | 0.0638 ± 0.0075
16 | CC1(C)CCC(NC(=O)[C@@H](N)CCC(=O)O)CC1 | 0.979 ± 0.013 | 0.975 ± 0.016 | 0.999 ± 0.011 | 0.982 ± 0.046 | 0.9703 ± 0.0085 | 0.985 ± 0.012
17 | O=C(O)C1CCNCC1 [Isonipecotic acid] | 1.003 ± 0.0058 | 1.02 ± 0.017 | 1.01 ± 0.018 | 1.04 ± 0.07 | 0.9937 ± 0.0015 | 1.001 ± 0.0078
18 | CC(=O)OCC(=O)NCCCOc1cccc(CN2CCCCC2)c1 [Roxatidine Acetate HCl] | 1.01 ± 0.025 | 1.01 ± 0.02 | 1.01 ± 0.011 | 1.006 ± 0.0075 | 0.9977 ± 0.004 | 0.991 ± 0.011
19 | CC1(C)CCC=[N+]1[O-] [5,5-Dimethyl-1-pyrroline-N-oxide] | 1.003 ± 0.0058 | 0.986 ± 0.013 | 0.988 ± 0.0076 | 0.984 ± 0.023 | 0.9853 ± 0.0031 | 0.9857 ± 0.0067
20 | C=CC(N)CCC(=O)O (racemic) [(±)-gamma-Vinyl GABA] | 1.01 ± 0.012 | 0.998 ± 0.033 | 1.01 ± 0.02 | 1.01 ± 0.021 | 1.02 | 1.01
21 | Oc1ccc(C2CNCCc3c2cc(O)c(O)c3Cl)cc1 (stereo not drawn) [Fenoldopam monohydrobromide] | 0.9943 ± 0.0074 | 0.995 ± 0.013 | 1.01 | 1 ± 0.0095 | 1.01 | 1
22 | N#C/C(=C\c1ccc(O)c(O)c1)C(=O)Nc1ccccc1 [Tyrphostin AG 494] | 0.9787 ± 0.0078 | 0.988 ± 0.035 | 1 ± 0.026 | 0.961 ± 0.03 | 0.9777 ± 0.0074 | 0.9967 ± 0.0032
23 | O=C1NC(=O)C(c2ccccc2[N+](=O)[O-])=C1Nc1ccc(O)c(Cl)c1 | 1.01 | – | – | 1.02 | – | –
24 | O=C1NC(=O)/C(=C/c2ccc3nccc(-c4ccncc4)c3c2)S1 | 0.697 ± 0.026 | 0.836 ± 0.011 | 0.73 ± 0.039 | 0.848 ± 0.026 | 0.886 ± 0.023 | 0.932 ± 0.027
25 | C[N+](C)(C)CCOP(=O)(O)OP(=O)([O-])OC[C@H]1O[C@@H](n2ccc(N)nc2=O)[C@H](O)[C@@H]1O [Citicoline sodium] | 1.003 ± 0.0058 | 1 ± 0.029 | 1.02 ± 0.011 | 1 ± 0.011 | 1.006 ± 0.0069 | 1.007 ± 0.0058
26 | CCN(CC)CCCC(C)Nc1ccnc2cc(Cl)ccc12 (stereo not drawn) [Chloroquine diphosphate] | 1 ± 0.015 | 0.752 ± 0.026 | 1.001 ± 0.009 | 0.963 ± 0.04 | 0.9793 ± 0.0076 | 0.947 ± 0.013
27 | O=C(COc1cccc2c(=O)[nH]ccc12)c1ccccc1 | 0.9837 ± 0.005 | 1 ± 0.011 | 0.981 ± 0.01 | 0.912 ± 0.16 | 0.9897 ± 0.0067 | 0.9857 ± 0.0042
